# Data published in patent US7078400B2, “20-HETE synthase inhibitor” (Taisho Pharmaceutical Co., Ltd., priority 1999, dated 2006).
# At least one compound was matched to its structure with a doubt left.
# Test system: 20-HETE synthase originated from rat kidney microsome
# Assay: Inhibitory effect of 20-HETE synthase originated from rat kidney microsome
# Type: biochemical
# Conditions: 1 μM of subject compound, 20-HETE production without compound set to 100%
# Procedure: Experimental Example [Inhibitory effect of 20-HETE synthase originated from rat kidney microsome]
# Regarding the compounds listed in Table 1, their inhibitory activity to production of 20-HETE was examined.
# The subject compound for this examination was added to a buffer comprising 50 mM of 3-morpholinopropane sulfonic acid (pH7.4), 5 mM of magnesium chloride and 1 mM of ethylenediaminetetraacetic acid (EDTA) disodium salt.
# After that, the rat kidney microsome (microsome fraction prepared from the kidney of a spontaneous hypertension rat (male, 6 weeks of age)) as an enzyme, [5,6,8,9,11,12,14,15] tritium-arachidonic acid (supplied by Amasham) as a substrate, and NADPH (supplied by Sigma) as a coenzyme were added and reacted for 1.5 hours at 37° C.
# After the reaction, formic acid was added to stop the reaction, and then acetonitrile (final concentration of 50%) was added and left for 1.5 hours at room temperature.
# The activity of 20-HETE synthase was measured by using a high performance liquid chromatograph having a detector for radioactive substances (supplied by Gilson), and equipped with a C18 reversed phase column (Biocyl C18, supplied by Bio-rad).
row,Structure (SMILES),Inhibition rate (1 μM)
1,COC(=O)c1cc(Br)ccc1N/C=N/O [Comp. 200],53.3
2,COC(=O)c1cc(C)c(N/C=N/O)c(Cl)c1 [Comp. 202],31.6
3,O/N=C/Nc1ccc(OCc2ccc(Cl)cc2Cl)cc1 [Comp. 385],109.0
4,O/N=C/Nc1ccc(N2CCOCC2)c(Cl)c1 [Comp. 302],96.5
5,O/N=C/Nc1ccc(OCCc2ccc(Br)cc2)cc1 [Comp. 377],107.4
6,O=[N+]([O-])c1ccc(N/C=N/O)c(Cl)c1 [Comp. 203],51.1

# Same assay, conditions: 1 μM of the subject compound added, 20-HETE production without compound set to 100%
row,Structure (SMILES),Inhibition rate (1 μM)
1,Cc1ccc(Cl)cc1N/C=N/O [Comp. 164],86.7
2,Cc1cc(N/C=N/O)ccc1Cl [Comp. 170],99.8
3,CCc1cc(Br)ccc1N/C=N/O [Comp. 177],85.4
4,O/N=C/Nc1c(Br)cc(Br)cc1Br [Comp. 100],44.3
5,OCc1cc(Cl)ccc1N/C=N/O [Comp. 174],62.4
6,CC(C)(C)c1ccc(N/C=N/O)c(Br)c1 [Comp. 169],104.1
7,COc1cc(Cl)c(C)cc1N/C=N/O [Comp. 182],90.2
8,CC(C)(C)c1ccc(N/C=N/O)c(Cl)c1 [Comp. 168],61.9
9,Cc1ccc(N/C=N/O)cc1Br [Comp. 176],67.0

# Same assay, conditions: concentration at which 20-HETE production was inhibited to 50%
row,Structure (SMILES),IC50 [nM]
1,O/N=C/Nc1ccc(N2CCOCC2)c(Cl)c1 [Comp. 302],1.9
